Test system: NCI-H322M
Conditions: 48-hour incubation; for CC50: read-out: LC50, NCI-H322M, Lung cancer

Compound	GI50 [µM]	CC50 [µM]
Nc1ccn(C2CCC(COP(=O)(O)OCC(O)COP(=O)(O)OCC3OC(n4cc(F)c(=O)[nH]c4=O)CC3O)O2)c(=O)n1 (racemic) [NSC 704533, 2′,3′-didesoxycytidylyl-(5′→1)-racglycerylyl-(3→5′)-5-fluoro-2′-desoxyuridine]	1.95	> 100
CCCCCCCCCCCCCCCCCCOC(COP(=O)(O)OCC1OC(n2cc(F)c(=O)[nH]c2=O)CC1O)COP(=O)(O)OCC1OC(n2ccc(N)nc2=O)C(O)C1O (racemic) [NSC 698688-A/1, arabinocytidylyl-(5′→1)-2-O-octadecyl-rac-glycerylyl-(3→5′)-5-fluoro-2′-deoxyuridine]	35.6	> 100

Source: patent publication US6787525B1, “Glyceryl nucleotides, method for the production thereof and their use” (priority 1998, dated 2004)
